Assay results as given in ChEMBL document CHEMBL4888484, “Replenishing the malaria drug discovery pipeline: Screening and hit evaluation of the MMV Hit Generation Library 1 (HGL1) against asexual blood stage Plasmodium falciparum ,using a nano luciferase reporter read-out” (2022).
Several values for one entry are separate records, joined by “and”; a condition that tells them apart may be missing. Identical values can stand only once. The campaign covered roughly 150,000 compounds. About 540 (0.36%) showed an effect of 50% or more. Some of the results follow.

Test system: Plasmodium falciparum
Test: Primary screen in NF54 nanoGlo assay, in single point, at 2uM, 72h; a lower Z score goes with more inhibition
Type: functional, Erythrocyte
Details: timepoint 72 hour

SMILES	% Inhibition [%]	Z score	% Inhibition (2 µM)
COCCN(Cc1nc(C2CC2)no1)C(C)C	-5	0.88	–
CC1(C)CN(S(=O)(=O)Cc2ccccc2)C[C@]2(C[C@@H]3CC[C@H]2C3)O1	-2	0.29	–
COc1ccc(N(Cc2nc(-c3ccccc3)oc2C)S(=O)(=O)c2ccccc2C)cc1	0	0.06	–
O=S(=O)(c1cc(F)ccc1F)N1C[C@H](COCC2CC2)C2(CCOCC2)C1	-2	0.28	–
Cc1noc(CC2CCN(C(=O)CN3C(=O)OC[C@@H]3c3ccccc3)CC2)n1	-7	1.05	–
O=C(NCc1cn(-c2ccncc2)nn1)OCC1CCC1	6	-0.81	–
Cc1cc(C(=O)N2CCOCC2)ccc1N(C)Cc1ncccc1Cl	6	-1.24	–
c1ccc2c(c1)ncn2CNn1cnnc1	0	0.08	–
Cc1ccc(-c2nnc(CNCCc3nc(-c4cccnc4)n[nH]3)o2)n1C	-12	2.41	–
C[C@H](NCC(C)(C)C(N)=O)c1cc(F)cc(F)c1	-12	1.08	–
Cc1cc(OCc2nc(C)c(C(=O)Nc3nnc(C4CC4)s3)s2)ccc1Cl	-13	1.88	–
CCCCc1noc([C@H](C)S(=O)(=O)Cc2ccn(-c3ccccc3)n2)n1	0	-0.01	–
Cc1ccc(CN2CCN(C(=O)c3cnc[nH]3)[C@@H](C)C2=O)cc1	-9	1.84	–
Cn1ccc([C@@H]2CCCCN2C(=O)c2csc(-c3cccs3)n2)n1	0	-0.09	–
CCCN(CC(C)(C)O)C(=O)c1ccc(CC(C)C)s1	2	-0.35	–
COCc1nsc(N2CCC[C@H](CC(F)(F)F)C2)n1	-2	0.31	–
OC[C@@]1(CCc2ccccc2)CCCNC1	-7	1.18	–
COC(=O)c1cc2n(n1)C[C@@](C)(C(=O)NC1CCCCC1)N(c1cc(C)cc(C)c1)C2=O	5	-0.6	–
O=C(Nc1cccc(Cn2ccnc2)c1)c1cccnc1O	-4	0.38	–
C[C@H]1Cc2ccccc2N1Cc1nc2ccccc2o1	-1	0.15	–
Cc1cnc(C)c(N2CCC(NC(=O)CC3CCCCC3)CC2)n1	-17	2.14	–
Cc1ccccc1NC(=O)OCC(F)(F)F	-4	0.68	–

SMILES	% Inhibition [%]	Z score	% Inhibition (2 µM)
Cn1ccnc1CN1CCC2CCC(C1)N2C(=O)OC(C)(C)C (stereo unspecified)	-11	1.66	–
Cc1nnc(CN(C)C(=O)NCc2ccc(OC(F)F)cn2)s1	0	0	–
COCc1nc(-c2ccsc2)n(CC(F)(F)F)n1	2	-0.4	–
O=c1c2ccccc2nnn1C[C@H]1CC[C@H](C(=O)NCc2ccccn2)CC1	-2	0.45	–
C=CCC(C(=O)NC(C)c1nn(C)cc1OC)c1ccccc1 (stereo unspecified)	-13	1.44	–
CC[C@H](C)NCCOc1ccccc1C	8	-1.11	–
COc1ncccc1NCc1ccncc1	-8	1.52	–
Cc1c(Cl)cccc1NC(=O)COc1cccc(-c2nnco2)c1	-8	1.11	–
CCCCN(CC(N)=O)C(=O)Cc1ccc(Cl)cc1Cl	-6	0.76	–
COc1cc2c(cc1OC)C(=O)C(C)(C)N(C(=O)CC(c1ccccc1)c1ccccc1)C2	5	-0.98	–
CCCc1cc([C@@H]2CCCN2Cc2cc(OC)c(OC)c(OC)c2)no1	-10	1.32	–
CCOC(C)(C)C(=O)N[C@@H](COC)c1ccccn1	-6	1.22	–
CCc1nsc(N[C@H]2CCC(=O)N(C)C2)n1	-12	2.1	–
CC(=O)Nc1ccc2c(c1)cc(C(=O)N1CCCC1)n2Cc1ccc(C(C)(C)C)cc1	-12	2.35	–
CC(=O)N1CCN(Cc2ccccc2NC(=O)c2cscn2)CC1	-17	1.74	–
Cc1nnsc1CN(C)Cc1ccc([C@H](C)N(C)C)cc1	-4	0.66	–
O=C(c1cnccn1)N1CCCCC[C@H]1C1CCCCC1	-10	1.2	–
Cc1ncc(CN(CCO)c2cccc(C(C)C)c2)o1	-9	0.89	–
NC(=O)CN1CCCN(c2ncnc3scc(-c4ccccc4)c23)CC1	-11	2.04	–
COc1ccc(Cl)cc1S(=O)(=O)c1cnc(N2CCC(NC(=O)OC(C)(C)C)CC2)nc1N	4	-0.6	–
CN1CCN(C(=O)C[C@@H]2CCN3C[C@@H]2/C=C\COc2ccccc2CNCC3=O)CC1	-4	0.5	–
Nc1nc(N[C@H]2C[C@@H](c3cc(=O)[nH]cn3)C2)c2nc[nH]c2n1	12	-1.38	–

SMILES	% Inhibition [%]	Z score	% Inhibition (2 µM)
O=C(Nc1ccc(OC[C@H]2CCCCO2)cc1)C1(N2CCOCC2)CCCCC1	1	-0.26	–
C[C@]1(c2cccnc2)NC(=O)N(CC(F)F)C1=O	-7	1.2	–
CNS(=O)(=O)N1CCC(F)(Cc2ccccn2)CC1	-8	1.46	–
COCCc1nncn1C1CCN(C(=O)c2ccc(C(F)(F)F)cc2)CC1	-16	2.8	–
Cn1c(-c2ccccn2)nn(CC(=O)N2CCC(Cc3ccccc3)CC2)c1=O	7	-0.78	–
O=C(OCc1ccccc1)C1C2CCC(C2)C1NCc1nccs1 (stereo unspecified)	8	-1.45	–
O=C(CCCC1CCCCC1)N1CC[C@H](c2nn[nH]n2)C1	-44	5.17	–
CCCS(=O)(=O)N1CCC2(CC1)CC(=O)N(Cc1c(C)noc1C)C2	3	-0.47	–
NC(=O)C1CCCC1Nc1ccc(Br)cn1 (stereo unspecified)	-17	1.99	–
CCOc1ccccc1-c1cc(C(=O)N2CCNC(=O)C2)n[nH]1	-11	1.49	–
CCn1ncc(NC(=O)Cn2ccc(-c3ccncc3)n2)n1	2	-0.22	–
C[C@@H](NC(=O)CCc1ccc(Br)cc1)C(=O)O	0	0.03	–
CCN(CC)S(=O)(=O)NCc1c(C)n[nH]c1C	13	-1.7	–
Cn1cc(C(NC2CCCC(C3CC3)C2)C(F)(F)F)cn1 (stereo unspecified)	-14	2.17	–
CC1CC1c1ccc(CN(C)C(=O)c2ccc(N3CCCC3=O)cc2)o1 (stereo unspecified)	-7	0.92	–
O=C(NC1CCCCCC1)c1csc2c1CCNC2	-14	1.25	–
c1cnnc(-c2noc([C@@H]3[C@H]4[C@@H]5CC[C@@H](C5)[C@@H]34)n2)c1	-5	0.75	–
CCC(=O)N1CCc2ccc(OCc3ccc(C(=O)N4CCOCC4)o3)cc2[C@@H]1c1ccc(C)cc1	-6	0.75	–
O=C(NCCc1cn[nH]c1)N1CCC[C@H]1c1ccc(F)cc1F	-4	0.66	–
CC1CN(c2ccccc2NCc2cnc3cnccn23)CC(C)O1 (stereo unspecified)	-12	1.6	–
c1cncc(-c2cccc(CNc3ncccc3N3CCOCC3)c2)c1	3	-0.34	–
Cn1cc(S(=O)(=O)NCc2cccnc2-c2cccnc2)cn1	-2	0.33	–

SMILES	% Inhibition [%]	Z score	% Inhibition (2 µM)
CCc1[nH]c(=O)c(C#N)c2c1CO[C@H](C(C)C)C2	–	–	2% and 0%
Fc1ccc2c(c1)nc(-c1ccc3c(c1)OCO3)n2C1CCNCC1	4	-0.6	–
CNC(=O)OC[C@H]1CCCCN1C(=O)c1cc(C)nc2c1cnn2C	-19	2.28	–
Cc1ccc(Cn2c(C(=O)N3CCN(C(=O)c4ccccc4F)[C@@H](C)C3)cc3ccoc32)cc1	-4	0.62	–
Cc1cc2c(N3CCC[C@H]3C(C)(C)O)nccn2n1	-14	1.76	–
CCN(C(=O)CCN(C)[C@H]1CS(=O)(=O)C[C@@H]1O)c1ccccc1C	-17	2.3	–
O=C(NCC1CCCC1NC(=O)c1ccsc1)c1ccsc1 (stereo unspecified)	8	-1.37	–
COc1ccc(CCNc2nc(-c3ccc4c(c3)OCO4)cs2)cc1OC	-5	0.65	–
CC(C)(C)c1cc(CN2CCOCC2)c(O)c(CN2CCOCC2)c1	-4	0.54	–
O=C(COc1c(F)c(F)c(F)c(F)c1F)N1CCO[C@@H](COCc2ccc(F)cc2Cl)C1	-10	1.46	–
O=C(CCNC(=O)c1nc2n(n1)CCCN2)NCc1cccnc1	18	-2.3	–
Cc1ccc(-c2cc(-c3ccccc3)c3c(N)c(C(=O)Nc4c(C)ccc5ccccc45)sc3n2)cc1	-7	0.82	–
CCn1cc(CN2C[C@@H]3CC[C@H]2CN(C(=O)C2CCC2)C3)cn1	11	-1.51	–
COc1cc(N2CCC(N3C[C@@H](C)O[C@@H](C)C3)CC2)ncn1	3	-0.56	–
COc1cc2c(C(=O)N3CCCCC3)c(C)n(-c3ccccc3)c2cc1Br	2	-0.21	–
O=C(Nc1ccc(C(F)F)nc1)c1coc2c1C(=O)NCCC2	4	-0.68	–
O=C(N1CCc2c(cnn2-c2ccccc2)C1)C1(C(F)(F)F)CCOCC1	2	-0.31	–
CN1C(=O)[C@@H]2CCC[C@H]1CN(c1ncc(C#N)c(N)n1)C2	-13	1.67	–
NC(=O)[C@@H]1CN(Cc2cccc3[nH]ccc23)CCO1	-12	2.27	–
CCC(=O)Nc1c(C)noc1/C=C\c1ccc(S(=O)(=O)N2CCN(C3CCCCC3)CC2)cc1	-24	3.35	–
